Data: patent US20180195054A1 (Stanford University, published 2018)

Molecular target: T1, biotinylated CD47 IgSF domain (human CD47 residues 19-135 / residues 1-117, C15G) (human, UniProt Q08722 fragment, biotinylated with BirA ligase at the C-terminal biotin acceptor peptide tag)
T1 construct: range 19-135; Captured on a Biacore SA chip for SPR; C15G is counted on the mature domain (1-117), not on the precursor; also called immobilized CD47
Test: SPR (Biacore T100, 25 C), biotinylated CD47 captured on SA chip, SIRPα variant in solution, 1:1 Langmuir model
Method: SPR experiments were conducted on a Biacore T100 instrument at 25° C. Experiments used a Biacore SA sensor chip (GE Healthcare) to capture biotinylated CD47 at a surface density of approximately 150 RU. An unrelated biotinylated protein was immobilized as a reference surface for the SA sensor chip with matching RU to the experimental surface. Serial dilutions of unbiotinylated SIRPα variants in the running buffer [1×HBS-P (GE Healthcare)] were flowed over the chip at a rate of 50 μL/min. CD47 was regenerated using three 30 second injections of 2M MgCl₂. Data was analyzed using the Biacore T100 evaluation software version 2.0 with a 1:1 Langmuir binding model.
Experiments were conducted with a Biacore T100 at 25° C. Protein concentrations were quantified by 280 nm absorbance with a Nanodrop2000 spectrometer (Thermo Scientific). A Biacore SA sensor chip (GE Healthcare) was used to capture biotinylated CD47 (Rₘₐₓ ˜150 RU). An unrelated biotinylated protein was immobilized with an RU value matching that of the […] to control for nonspecific binding. Measurements were made with serial dilutions of the SIRPα variants in HBS-P+ buffer (GE Healthcare). The CD47 surface was regenerated by three 60 second injections of 2 M MgCl₂. All data were analyzed with the Biacore T100 evaluation software version 2.0 with a 1:1 Langmuir binding model.

T1 sequence (Q08722 other isoform, or with tags, fused parts or gaps C15G C15G limits assumed): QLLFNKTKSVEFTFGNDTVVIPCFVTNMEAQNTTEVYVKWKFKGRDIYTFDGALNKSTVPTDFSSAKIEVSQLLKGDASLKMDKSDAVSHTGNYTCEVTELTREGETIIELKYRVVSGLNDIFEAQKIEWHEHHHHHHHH

Kd: 279 nM
B1: wild-type SIRPα allele 1 d1 domain monomer (receptor)
chain: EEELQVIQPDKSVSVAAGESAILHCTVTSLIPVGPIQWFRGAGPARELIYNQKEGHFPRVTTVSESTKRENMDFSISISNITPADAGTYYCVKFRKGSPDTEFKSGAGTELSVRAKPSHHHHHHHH
notes: also called WTa1; WTa1 mono
